{"source": "PubChem BioAssay (Tox21)", "key": {"[1]": {"molecular_target": "Estrogen receptor (Homo sapiens) (UniProt P03372)", "sequence (P03372 whole entry, looked up)": "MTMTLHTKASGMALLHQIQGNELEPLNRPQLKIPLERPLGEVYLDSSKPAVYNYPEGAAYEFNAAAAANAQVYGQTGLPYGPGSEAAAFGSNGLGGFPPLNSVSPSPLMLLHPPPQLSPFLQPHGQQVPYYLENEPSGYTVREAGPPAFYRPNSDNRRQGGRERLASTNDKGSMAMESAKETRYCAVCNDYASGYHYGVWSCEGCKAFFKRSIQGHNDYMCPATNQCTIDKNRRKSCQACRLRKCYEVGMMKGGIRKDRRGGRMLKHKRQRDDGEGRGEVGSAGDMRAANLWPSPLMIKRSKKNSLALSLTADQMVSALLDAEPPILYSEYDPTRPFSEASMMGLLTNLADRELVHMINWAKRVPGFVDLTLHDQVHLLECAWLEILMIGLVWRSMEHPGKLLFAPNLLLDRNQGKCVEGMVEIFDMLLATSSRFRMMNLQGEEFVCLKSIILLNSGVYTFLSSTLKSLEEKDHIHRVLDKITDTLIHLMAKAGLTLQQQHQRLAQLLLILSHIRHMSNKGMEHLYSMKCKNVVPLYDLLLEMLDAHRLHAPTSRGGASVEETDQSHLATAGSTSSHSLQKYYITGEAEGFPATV", "experiment": "qHTS assay to identify small molecule agonists of the estrogen receptor alpha (ER-alpha) signaling pathway using the BG1 cell line (AID 743079); also: nearly all actives have a fitted effect of over 20% in size; also: potency is read from the fitted curve at half-maximal effect; as to activation: % is scaled to controls: 0 for no effect and ±100 for the full control effect", "details": "BG1Luc4E2 cells, ERE-luciferase agonist, 22 h"}, "[2]": {"experiment": "qHTS assay to identify small molecule antagonists of the estrogen receptor alpha (ER-alpha) signaling pathway using the BG1 cell line (AID 743080; calls by dose curve;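 also: BG1 cells stimulated with 17beta-estradiol alongside compound; nearly all actives have a fitted effect of over 25% in size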; also: potency is read from the fitted curve at half-maximal effect; as to activity change, negative = inhibition: % is scaled to controls: 0 for no effect and ±100 for the full control effect)", "details": "BG1Luc4E2 ERE-luciferase antagonist mode, luminescence; activity change, negative = inhibition: at 70.3 µM (top of the series) unless noted", "how_it_was_run": "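After 5 days in phenol-red-free 10% charcoal-stripped FBS medium, BG1-Luc-4E2 cells were seeded, left 24 h at 37 C, co-treated with compounds and 17beta-estradiol for 21.5 h, then assayed for viability and luciferase.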"}, "[3]": {"molecular_target": "Peroxisome proliferator-activated receptor gamma (Homo sapiens) (UniProt P37231)", "sequence (P37231 whole entry, looked up)": "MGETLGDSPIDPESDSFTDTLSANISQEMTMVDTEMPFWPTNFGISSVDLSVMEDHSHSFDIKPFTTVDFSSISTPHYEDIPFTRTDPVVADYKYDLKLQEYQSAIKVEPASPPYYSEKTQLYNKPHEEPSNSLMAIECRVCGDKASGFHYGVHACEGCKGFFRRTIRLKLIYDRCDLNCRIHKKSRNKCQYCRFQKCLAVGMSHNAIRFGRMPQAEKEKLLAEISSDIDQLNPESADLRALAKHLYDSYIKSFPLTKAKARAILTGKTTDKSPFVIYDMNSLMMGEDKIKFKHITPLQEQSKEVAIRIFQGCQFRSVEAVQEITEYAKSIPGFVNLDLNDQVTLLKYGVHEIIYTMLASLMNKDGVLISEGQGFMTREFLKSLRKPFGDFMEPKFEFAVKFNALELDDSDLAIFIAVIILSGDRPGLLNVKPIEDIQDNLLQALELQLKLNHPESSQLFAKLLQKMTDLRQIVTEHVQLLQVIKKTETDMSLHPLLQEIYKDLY", "experiment": "qHTS assay to identify small molecule agonists of the peroxisome proliferator-activated receptor gamma (PPARg) signaling pathway (AID 743094; active = well fitted activation curve with a large enough effect in the signal ratio in the repeat runs, not every such curve was filed as active; inconclusive = weak or mixed curves, or effect the other way; inactive = no such curve, though single readings can be large or run the other way; the % refers to the signal ratio; also: potency is read from the fitted curve at half-maximal effect; as to activation: % is scaled to controls: 0 for no effect and ±100 for the full control effect)", "details": "HEK293H PPARg-UAS-bla, beta-lactamase FRET ratio, 17 h; activation: at 57 µM (top of the series) unless noted", "how_it_was_run": "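Following 5 h plating at 37C, PPARg-bla HEK293H cells receive compound or DMSO for 17 h; fluorescence intensity is recorded after LiveBLAzer B/G loading for 1 h at room temperature.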"}, "[4]": {"molecular_target": "Peroxisome proliferator-activated receptor gamma (Homo sapiens) (UniProt P37231)", "experiment": "qHTS assay to identify small molecule antagonists of the peroxisome proliferator-activated receptor gamma (PPARg) signaling pathway (AID 743191; calls by dose curve; also: % is scaled to controls: 0 for no effect and ±100 for the full control effect; nearly all actives have a fitted effect of over 30% in size)", "details": "HEK293H PPARg-UAS-bla, beta-lactamase ratio, antagonist, 17 h; ratio activity, negative = inhibition: at 62.6 µM (top of the series) unless noted", "how_it_was_run": "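GeneBLAzer PPARg UAS-bla HEK293H cells carrying a UAS-driven beta-lactamase reporter were plated at 3000 cells/well, preincubated 5 h at 37C, then given compound for 17 h at 37C; LiveBLAzer B/G FRET substrate was read after 1 h at room temperature.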"}, "[5]": {"experiment": "qHTS assay to identify small molecule antagonists of the estrogen receptor alpha (ER-alpha) signaling pathway using the BG1 cell line - cell viability counter screen (AID 743081);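 also: compound given together with 17beta-estradiol as the ER stimulus; potency is read from the fitted curve at half-maximal effect; nearly all actives have a fitted effect of over 45% in size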", "details": "BG1Luc4E2 viability, CellTiter-Fluor, 22 h; activity change, negative = cytotoxicity: at 70.3 µM (top of the series)"}, "[6]": {"experiment": "qHTS assay to identify aromatase inhibitors - cell viability counter screen (AID 743084);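 also: cells stimulated with testosterone during compound exposure; potency is read from the fitted curve at half-maximal effect; nearly all actives have a fitted effect of over 55% in size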", "details": "MCF-7 aro ERE viability, CellTiter-Fluor, 24 h; activity change, negative = cytotoxicity: at 70.3 µM (top of the series)"}, "Aromatase (Homo sapiens)": {"molecular_target": "Aromatase (Homo sapiens) (UniProt P11511)", "sequence (P11511 whole entry, looked up)": "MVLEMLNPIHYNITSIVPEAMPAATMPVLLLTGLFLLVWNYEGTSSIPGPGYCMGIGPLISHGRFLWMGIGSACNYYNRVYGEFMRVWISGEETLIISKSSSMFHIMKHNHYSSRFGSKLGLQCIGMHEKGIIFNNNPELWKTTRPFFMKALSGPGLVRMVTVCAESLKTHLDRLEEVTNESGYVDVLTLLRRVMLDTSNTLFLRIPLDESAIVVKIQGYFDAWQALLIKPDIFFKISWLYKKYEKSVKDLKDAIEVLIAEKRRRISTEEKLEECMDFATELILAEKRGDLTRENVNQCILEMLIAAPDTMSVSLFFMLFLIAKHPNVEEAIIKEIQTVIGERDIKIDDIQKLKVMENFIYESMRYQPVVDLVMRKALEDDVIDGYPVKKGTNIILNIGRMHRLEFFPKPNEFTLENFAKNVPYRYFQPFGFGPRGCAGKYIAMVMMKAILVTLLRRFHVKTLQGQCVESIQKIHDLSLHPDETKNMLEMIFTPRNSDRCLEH", "experiment": "qHTS assay to identify aromatase inhibitors (AID 743083); also: potency is read from the fitted curve at half-maximal effect; nearly all actives have a fitted effect of over 55% in size", "details": "MCF-7 aro ERE, testosterone-driven ERE luciferase, 24 h; activity, negative = inhibition: at 70.3 µM (top of the series)"}, "[7]": {"experiment": "qHTS assay to identify small molecule antagonists of the peroxisome proliferator-activated receptor gamma (PPARg) signaling pathway - cell viability counter screen (AID 743194); also: % is scaled to controls: 0 for no effect and ±100 for the full control effect; nearly all actives have a fitted effect of over 55% in size", "details": "PPARg-bla HEK293H viability, CellTiter-Glo luminescence, 17 h, co-treated with 50 nM rosiglitazone; activity change, negative = cytotoxicity: at 62.6 µM (top of the series) unless noted", "how_it_was_run": "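PPARg-UAS-bla HEK293H cells were plated, rested 5 h at 37 C, then treated with compounds plus rosiglitazone (50 nM final) for 17 h at 37 C; viability was then read by CellTiter-Glo luminescence after 30 min at room temperature.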"}, "[8]": {"details": "activation: at 70.3 µM (top of the series) unless noted"}}, "note": "“And” between values parts separate entries of the source, which are not always exact repeats. Identical values can stand only once. Inconclusive means that the source gave no clear call. Such entries were picked first, then a sample of the others. For part of these data: A potency beside an inconclusive call is a rough fit, not a confirmed value. Where a structure was tested more than once in an assay, its records may differ in their call. The source made the active and inactive calls. Unless noted, calls follow the shape of the dose curve; as a rule, active = well fitted curve in the direction sought with a large enough effect in the repeat runs; inconclusive = weak or mixed curves; inactive = no such curve, though single readings can be large; an effect the other way counts as inactive or inconclusive. Tags tell the direction and shape of the fitted curve or compound fluorescence and quenching.", "data": [{"smiles": "NCCOCCN", "values": [{"measurement": "Potency", "setting": "[1]; [8]", "result": "inactive"}]}, {"smiles": "O=C(O)CCCC(=O)O", "values": [{"measurement": "activation", "setting": "[1]; [8]", "result": "inconclusive: -7.19% [phenotype inactive]"}, {"measurement": "Potency", "setting": "[2]", "result": "inactive"}]}, {"smiles": "Cc1ccc(Cl)cc1", "values": [{"measurement": "activation", "setting": "[1]; [8]", "result": "inconclusive: 2.79% [phenotype inactive] [at 95 µM]"}, {"measurement": "activation", "setting": "[1]; at 70.3 µM (top of the series)", "result": "inactive: 3.29%"}, {"measurement": "Potency", "setting": "[3]", "result": "inactive"}, {"measurement": "ratio activity, negative = inhibition", "setting": "[4]", "result": "inconclusive: 0.788%"}]}, {"smiles": "C[N+]1(CC2COC(c3ccccc3)(C3CCCCC3)O2)CCCCC1", "note": "(stereo not given)", "values": [{"measurement": "Potency", "setting": "[1]; [8]", "result": "inactive"}]}, {"smiles": "C=CCc1ccc(O)c(OC)c1", "values": [{"measurement": "activation", "setting": "[1]; [8]", "result": "inconclusive: 22% [phenotype inactive]"}, {"measurement": "Potency", "setting": "[2]", "result": "inactive"}]}, {"smiles": "CC(=O)c1cccc([N+](=O)[O-])c1", "values": [{"measurement": "Potency", "setting": "[1]; [8]", "result": "inactive"}]}, {"smiles": "F[Si-2](F)(F)(F)(F)F", "values": [{"measurement": "Potency", "setting": "[1]; [8]", "result": "inconclusive: 26.6 µM [activator, partial curve, poor fit]"}]}, {"smiles": "C/C(Cl)=C/CCl", "values": [{"measurement": "activation", "setting": "[1]; [8]", "result": "inconclusive: 2.8% [phenotype inactive] [at 95 µM]"}, {"measurement": "activity change, negative = inhibition", "setting": "[2]", "result": "inconclusive: -3.63% [at 95 µM]"}]}, {"smiles": "CC1(C)C(=O)NC(=O)N1CO", "values": [{"measurement": "activation", "setting": "[1]; [8]", "result": "inconclusive: 13.7% [phenotype inactive]"}]}, {"smiles": "CCN(CCCCOC(=O)c1ccc(OC)c(OC)c1)C(C)Cc1ccc(OC)cc1", "note": "(stereo not given)", "values": [{"measurement": "Potency", "setting": "[1]; [8]", "result": "inactive"}]}, {"smiles": "[O]=[Bi]", "values": [{"measurement": "Potency", "setting": "[1]; [8]", "result": "inconclusive: 2.11 µM [activator, partial curve]"}, {"measurement": "activity change, negative = inhibition", "setting": "[2]", "result": "inactive: 3.19% [at 8.47 µM]"}]}, {"smiles": "c1ccc(CCNc2nc(-c3ccccc3)cs2)cc1", "values": [{"measurement": "Potency", "setting": "[1]; [8]", "result": "active: 0.944 µM"}, {"measurement": "Potency", "setting": "[2]", "result": "inconclusive: 0.668 µM [rising, full curve]"}]}, {"smiles": "CCCCC(CC)COC(=O)CCCCCCCCC(=O)OCC(CC)CCCC", "note": "(stereo not given)", "values": [{"measurement": "Potency", "setting": "[1]; [8]", "result": "inconclusive: 3.06 µM [activator, partial curve]"}]}, {"smiles": "CC1CCN(CCCC(=O)c2ccc(F)cc2)CC1", "values": [{"measurement": "Potency", "setting": "[1]; [8]", "result": "inactive"}]}, {"smiles": "Fc1ccc(Br)cc1", "values": [{"measurement": "activation", "setting": "[1]; [8]", "result": "inconclusive: 27.9% [phenotype inactive] [at 95 µM]"}]}, {"smiles": "CC(=O)SCc1ccco1", "values": [{"measurement": "Potency", "setting": "[1]; [8]", "result": "inactive"}]}, {"smiles": "CC1=CC(=C(c2ccc(N)cc2)c2ccc(N)cc2)C=CC1=N", "values": [{"measurement": "Potency", "setting": "[1]; [8]", "result": "inconclusive: 8.41 µM [inhibitor, full curve]"}, {"measurement": "activation", "setting": "[1]; [8]", "result": "inactive: 1.34% [at 8.47 µM]"}, {"measurement": "Potency", "setting": "[2]", "result": "inconclusive: 10.6 µM [falling, full curve]"}, {"measurement": "Potency", "setting": "[5]", "result": "active: 11.9 µM"}, {"measurement": "Potency", "setting": "[6]", "result": "inconclusive: 3.1 µM [cytotoxic, partial curve]"}, {"measurement": "Potency", "setting": "[3]", "result": "inconclusive: 16.9 µM [activator, partial curve]"}, {"measurement": "ratio activity, negative = inhibition", "setting": "[4]", "result": "inconclusive: 13.6% [at 5.95 µM]"}]}, {"smiles": "Cc1ncc([N+](=O)[O-])n1C", "values": [{"measurement": "activation", "setting": "[1]; [8]", "result": "inconclusive: 8.85% [phenotype inactive]"}]}, {"smiles": "CN(C)CCCCl", "values": [{"measurement": "activation", "setting": "[1]; [8]", "result": "inconclusive: 29.3% [phenotype inactive] [at 95 µM]"}, {"measurement": "Potency", "setting": "[2]", "result": "inactive"}]}, {"smiles": "O=C(Cl)c1ccc(C(=O)Cl)cc1", "values": [{"measurement": "Potency", "setting": "[1]; [8]", "result": "inactive"}, {"measurement": "Potency", "setting": "[2]", "result": "inactive"}]}, {"smiles": "CCOC(=O)c1ccc(O)cc1", "values": [{"measurement": "Potency", "setting": "[1]; [8]", "result": "active: 23.7 µM and active: 30.6 µM"}]}, {"smiles": "CC(C)CCCCCCOC(=O)CCCCC(=O)OCCCCCCC(C)C", "values": [{"measurement": "Potency", "setting": "[1]; [8]", "result": "inactive"}]}, {"smiles": "O=C(O)c1ccc(S(=O)(=O)O)cc1C(=O)O", "values": [{"measurement": "Potency", "setting": "[1]; [8]", "result": "inactive"}]}, {"smiles": "C=C1CC/C=C(\\C)CC[C@@H]2[C@@H]1CC2(C)C", "values": [{"measurement": "Potency", "setting": "[1]; [8]", "result": "inactive"}]}, {"smiles": "C[C@H]1C[C@H]2[C@@H]3CCC4=CC(=O)C=C[C@]4(C)[C@@]3(Cl)[C@@H](O)C[C@]2(C)[C@@]1(O)C(=O)CO", "values": [{"measurement": "Potency", "setting": "[1]; [8]", "result": "inactive"}, {"measurement": "Potency", "setting": "[2]", "result": "inconclusive: 0.015 µM [rising, full curve]"}]}, {"smiles": "C=CCCC", "values": [{"measurement": "Potency", "setting": "[1]; [8]", "result": "inactive"}]}, {"smiles": "Cc1ccc(C)c(OCCCC(C)(C)C(=O)O)c1", "values": [{"measurement": "Potency", "setting": "[1]; [8]", "result": "inconclusive: 61.6 µM [activator, partial curve]"}]}, {"smiles": "O=S(=O)(O)C(F)(F)F", "values": [{"measurement": "Potency", "setting": "[1]; [8]", "result": "inconclusive: 77 µM [inhibitor, partial curve, poor fit]"}]}, {"smiles": "CCCCCOC(=O)c1ccc(O)cc1", "values": [{"measurement": "Potency", "setting": "[1]; [8]", "result": "active: 17.4 µM"}, {"measurement": "Potency", "setting": "[2]", "result": "inconclusive: 24.6 µM [rising, partial curve]"}, {"measurement": "Potency", "setting": "Aromatase (Homo sapiens)", "result": "inconclusive: 69.4 µM [inhibitor, single point]"}, {"measurement": "Potency", "setting": "[6]", "result": "inconclusive: 49.2 µM [cytotoxic, partial curve]"}]}, {"smiles": "C[C@]12CCC(=O)C=C1C=C[C@@H]1[C@@H]2CC[C@@]2(C)[C@H]1CC[C@@]21CCC(=O)O1", "values": [{"measurement": "Potency", "setting": "[1]; [8]", "result": "inconclusive: 26.6 µM [inhibitor, single point]"}, {"measurement": "activity change, negative = inhibition", "setting": "[2]", "result": "inconclusive: -10.8%"}, {"measurement": "Potency", "setting": "Aromatase (Homo sapiens)", "result": "inconclusive: 18.8 µM [inhibitor, partial curve, poor fit]"}, {"measurement": "Potency", "setting": "[3]", "result": "inconclusive: 26.8 µM [rising, partial curve, poor fit]"}, {"measurement": "ratio activity, negative = inhibition", "setting": "[4]", "result": "inconclusive: 3.52%"}, {"measurement": "Potency", "setting": "[7]", "result": "inactive"}]}, {"smiles": "Cc1ccc2c(Cl)cc(Cl)c(O)c2n1", "values": [{"measurement": "Potency", "setting": "[1]; [8]", "result": "inconclusive: 3.35 µM [inhibitor, full curve]"}, {"measurement": "Potency", "setting": "[2]", "result": "active: 9.44 µM"}, {"measurement": "Potency", "setting": "[5]", "result": "inconclusive: 13.3 µM [cytotoxic, single point]"}, {"measurement": "Potency", "setting": "[6]", "result": "active: 23.7 µM"}, {"measurement": "Potency", "setting": "[3]", "result": "active: 9.52 µM"}]}]}
